Laboratory results: PubChem BioAssay AID651820 (National Center for Advancing Translational Sciences (NCATS), 2012)
Hit rate of the full screen: of about 340,000 compounds, about 12,000 (3.5%) were called active. This list was built around the results that the source calls inconclusive (neither active nor inactive); the mix of calls is not that of the screen. Calls follow the shape of the dose curve; as a rule, active = well fitted inhibition curve with a large enough effect; inconclusive = small, poorly fitted or top-dose-only effect, or another doubt; inactive = no such curve, though single readings can be large or run the other way. Potencies of inconclusive entries are left out as doubtful fits.

assay: qHTS Assay for Inhibitors of Hepatitis C Virus (HCV); conditions: Huh7.5.1 HCVcc-Cre (HCVcc is cell-culture hepatitis C virus) infection, luciferase reporter, 44 h; activity change, negative = inhibition: at 41.8 µM (top of the series) unless noted
Method in brief: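 Seed cells (1,000/well) for 4 h; treat with compound and infect with HCVcc-Cre, moi about 0.5. Incubate 44 h, then detect luciferase activity.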
% is scaled to controls: 0 for no effect and ±100 for the full control effect; potency is read from the fitted curve at half-maximal effect; tags tell the direction and shape of the fitted curve.

Question: For COc1ccc(C(=O)NCc2cc(C)nc3ccccc23)cc1OC, which Potency is on record?
Answer: Its Potency is inconclusive [inhibitor, single point].

Question: Which Potency does the source give for Cc1c(OCC(=O)NCC(O)c2ccccc2)ccc2c(-c3ccccc3)cc(=O)oc12 (stereo not given) here?
Answer: Its Potency is active: 31.6 µM.

Question: Which Potency does the source give for Cc1ccc(/C=C(\C#N)c2nc3ccccc3[nH]2)s1 here?
Answer: The Potency was inconclusive [inhibitor, partial curve].

Question: Which Potency does the source give for O=C(CCc1nnc2n(Cc3ccc(F)cc3)c(=O)c3ccccc3n12)N1CCN(c2ccccn2)CC1 here?
Answer: The Potency was active: 14.1 µM.

Question: Which Potency does the source give for CCn1c(CSc2nc3ccccc3s2)n[nH]c1=S here?
Answer: The Potency was “inactive”.

Question: With Cc1cccn2c(=O)c3cc(C(=O)N4CCC5(CC4)OCCO5)n(C)c3nc12 as the compound, how does the Potency read?
Answer: The Potency was inconclusive [inhibitor, partial curve].

Question: With CCOC(=O)c1ccc(NC(=S)N2CCCC2c2ccc(OC)c(OC)c2)cc1 (stereo not given) as the compound, how does the Potency read?
Answer: Its Potency is inconclusive [inhibitor, single point].

Question: Which Potency does the source give for COC(=O)C1Cc2ccccc2CN1C(=O)CCl (stereo not given) here?
Answer: The Potency was inconclusive [inhibitor, single point].

Question: For CSc1nc(NC(C)C)nc(N2CCOCC2)n1, which Potency is on record?
Answer: The Potency was inconclusive [inhibitor, partial curve].

Question: With CCOC(=O)N1CCC(N2C(=O)c3ccccc3C2Nc2ccccc2C)CC1 (stereo not given) as the compound, how does the Potency read?
Answer: Its Potency is inconclusive [inhibitor, single point].

Question: Which Potency does the source give for Cc1ccc(NC(=O)CN(C)S(=O)(=O)c2ccc3c(c2)n(C)c(=O)c(=O)n3C)cc1 here?
Answer: The Potency was “inactive”.

Question: For COC(=O)c1c(NC(=O)C(=O)NCCCN2CCOCC2)sc2c1CCCC2, which Potency is on record?
Answer: Its Potency is active: 22.4 µM.

Question: For O=C(CSc1ncccn1)NCc1ccccc1Cl, which Potency is on record?
Answer: Its Potency is “inactive”.

Question: For CCOC(=O)c1c(NC(=O)c2noc(C)c2[N+](=O)[O-])sc(C(C)=O)c1C, which Potency is on record?
Answer: The Potency was inconclusive [inhibitor, partial curve].

Question: For CCN(CC(=O)Nc1ccc(S(=O)(=O)N2CCOCC2)cc1)Cc1ccccc1, which Potency is on record?
Answer: The Potency was inconclusive [inhibitor, partial curve, poor fit].

Question: For Cc1ccc2c(c1)N(CCC(=O)NCC1CCCO1)C(=O)CO2 (stereo not given), which Potency is on record?
Answer: Its Potency is “inactive”.

Question: With Cc1ccc(S(=O)(=O)CCNC(=O)Cc2ccccc2)cc1 as the compound, how does the Potency read?
Answer: The Potency was “inactive”.

Question: For COCCNC(=S)N(CCc1c(C)[nH]c2ccc(F)cc12)Cc1cccs1, which Potency is on record?
Answer: Its Potency is inconclusive [inhibitor, single point].

Question: With O=C(CNC(=O)c1ccc(Cl)cc1)NCCCn1ccnc1 as the compound, how does the Potency read?
Answer: Its Potency is “inactive”.

Question: With Cc1c(C(=O)N(C)CC(=O)Nc2cccc(F)c2)oc2c(Cl)cccc12 as the compound, how does the Potency read?
Answer: The Potency was inconclusive [inhibitor, partial curve].

Question: Which Potency does the source give for O=c1[nH]c2ccccc2nc1/C=C/c1ccc(F)cc1 here?
Answer: The Potency was inconclusive [inhibitor, full curve].

Question: Which Potency does the source give for COc1ccc(CCNC(=O)c2cc(-c3ccco3)on2)cc1OC here?
Answer: Its Potency is inconclusive [inhibitor, partial curve, poor fit].

Question: Which Potency does the source give for COc1ccc(Br)cc1/C(C)=N/NC1=NCCN1 here?
Answer: The Potency was inconclusive [inhibitor, full curve].

Question: With N#Cc1ccc(OCC(=O)Nc2cc(S(=O)(=O)N3CCCCC3)ccc2N2CCCCC2)cc1 as the compound, how does the Potency read?
Answer: Its Potency is inconclusive [inhibitor, partial curve].

Question: For Cc1ccc(CNCCCSc2nc(C)cc(C)n2)cc1, which Potency is on record?
Answer: The Potency was inconclusive [inhibitor, single point].

Question: Which Potency does the source give for CCOC(CNC(=O)c1ccc(N2CCc3ccccc32)c([N+](=O)[O-])c1)OCC here?
Answer: The Potency was inconclusive [inhibitor, partial curve].

Question: Which Potency does the source give for COc1cccc(C(=O)Nc2ccc(C(=O)c3ccccc3)cc2)c1 here?
Answer: The Potency was active: 10 µM.

Question: Which Potency does the source give for O=c1c(C=NCCN2CCNCC2)c(O)n(C2CCCCC2)c(=O)n1C1CCCCC1 here?
Answer: Its Potency is inconclusive [inhibitor, full curve].

Question: For Cc1oc2c(CN3CCCC3)c(O)ccc2c(=O)c1-c1ccccc1, which Potency is on record?
Answer: The Potency was “inactive”.

Question: With N#Cc1ccc(-c2ccc(OCC(=O)Nc3cccnc3)cc2)cc1 as the compound, how does the Potency read?
Answer: The Potency was inconclusive [inhibitor, single point].

Question: Which Potency does the source give for COc1ccc2cc(CO)n(C)c2c1 here?
Answer: The Potency was inconclusive [inhibitor, full curve, poor fit].

Question: With COc1ccc(-c2noc(CCC(=O)NC3CCCCC3)n2)cc1 as the compound, how does the Potency read?
Answer: The Potency was inconclusive [inhibitor, partial curve].

Question: With CN1CCN(C2=C(Cl)C(=O)N(CCc3ccccc3)C2=O)CC1 as the compound, how does the Potency read?
Answer: The Potency was inconclusive [inhibitor, partial curve].

Question: For CCN(C(=O)CSc1nnc(Cn2nnc3ccccc32)o1)c1nc(-c2ccccc2)cs1, which Potency is on record?
Answer: The Potency was inconclusive [inhibitor, single point].

Question: With COc1cc(/C=N/N=C2/SCC(=O)N2c2ccc(O)cc2)ccc1O as the compound, how does the Potency read?
Answer: Its Potency is “inactive”.

Question: For COC(=O)c1sccc1NC(=O)Cc1ccc(Br)cc1, which Potency is on record?
Answer: The Potency was “inactive”.

Question: With CCOC(=O)C(C)N1C(=O)S/C(=C/c2cc(C)n(-c3ccccn3)c2C)C1=O (stereo not given) as the compound, how does the Potency read?
Answer: The Potency was active: 10 µM.

Question: With CCCC12CN3CC(C)(CN(C1)C3c1ccc(OC)cc1)C2=O (stereo not given) as the compound, how does the Potency read?
Answer: The Potency was “inactive”.

Question: Which Potency does the source give for CC(=O)NC1Sc2ccccc2N=C1c1ccccc1 (stereo not given) here?
Answer: The Potency was inconclusive [inhibitor, single point].

Question: For COc1cccc(OCc2ccc(Cl)cc2)c1C#N, which Potency is on record?
Answer: Its Potency is inconclusive [inhibitor, single point].

Question: With C#CCOc1nc2c(c(=O)n(C)c(=O)n2C)n1Cc1ccccc1 as the compound, how does the Potency read?
Answer: The Potency was active: 12.6 µM.

Question: With CCc1cccc(CC)c1NC(=O)COC(=O)c1cccc(S(=O)(=O)N2CCc3ccccc3C2)c1 as the compound, how does the Potency read?
Answer: Its Potency is “inactive”.

Question: For CC(Oc1ccccc1C(N)=O)C(=O)Nc1ccc(S(=O)(=O)N2CCCC2)cc1 (stereo not given), which Potency is on record?
Answer: The Potency was inconclusive [inhibitor, single point].

Question: With CN1CCN(c2ccccc2NC(=O)c2ccc(N3CCCC3)c([N+](=O)[O-])c2)CC1 as the compound, how does the Potency read?
Answer: Its Potency is inconclusive [inhibitor, full curve, poor fit].

Question: Which Potency does the source give for Cc1ccc(CNC(=O)c2ccc(NC(=O)C3=CSCCO3)cc2)cc1 here?
Answer: Its Potency is “inactive”.

Question: For Cc1cc(N2CCN(C(=O)c3ccco3)CC2)nc(-c2ccccc2)n1, which Potency is on record?
Answer: Its Potency is inconclusive [inhibitor, single point].

Question: For CN(C)/C=N/c1sc2c(c1C(N)=O)CCCC2, which Potency is on record?
Answer: Its Potency is inconclusive [inhibitor, single point].

Question: With O=[N+]([O-])c1ccccc1S(=O)(=O)NCc1ccc(F)cc1 as the compound, how does the Potency read?
Answer: The Potency was “inactive”.

Question: Which Potency does the source give for COC(=O)C1=C(O)/C(=C\c2ccc(OCC(=O)Nc3ccccc3)cc2)N=C1C here?
Answer: The Potency was “inactive”.

Question: With COC(=O)C1C(=O)C2=C(CC1C)NC(=O)CC2c1ccccc1 (stereo not given) as the compound, how does the Potency read?
Answer: Its Potency is “inactive”.

Question: For Cc1ccc(S(=O)(=O)Cn2nnnc2CN(Cc2ccco2)Cc2cccs2)cc1, which Potency is on record?
Answer: The Potency was “inactive”.

Question: For CC(OC(=O)CCN=C1NS(=O)(=O)c2ccccc21)C(=O)Nc1ccc(F)cc1Cl (stereo not given), which activity change, negative = inhibition is on record?
Answer: Its activity change, negative = inhibition is inconclusive: -103% [inhibitor].

Question: For Cc1ccc(CNC(=O)CSc2nc3ccccc3[nH]2)cc1, which Potency is on record?
Answer: The Potency was “inactive”.

Question: For O=C(COC(=O)c1cc(S(=O)(=O)Nc2ccccc2Cl)ccc1O)Nc1nc2ccccc2s1, which Potency is on record?
Answer: Its Potency is “inactive”.

Question: For COc1ccc(NC(=O)c2ccc(-c3ccc(-c4noc(C)n4)cc3C)cc2)cc1N1CCN(C)CC1, which Potency is on record?
Answer: The Potency was inconclusive [inhibitor, full curve].

Question: Which Potency does the source give for O=c1c(Br)c(Br)cnn1-c1ccccc1 here?
Answer: Its Potency is active: 8.91 µM.

Question: For Cc1ccccc1N1C(=O)C2C3CC(=O)C(c4ccccc43)C2C1=O (stereo not given), which Potency is on record?
Answer: The Potency was “inactive”.

Question: Which Potency does the source give for COc1ccc(CCNC(=O)CC2Nc3ccccc3NC2=O)cc1OC (stereo not given) here?
Answer: The Potency was “inactive”.

Question: With COc1ccccc1CCNC(=O)C(=O)NCC1CCCN1S(=O)(=O)c1ccccc1 (stereo not given) as the compound, how does the Potency read?
Answer: The Potency was inconclusive [inhibitor, partial curve].

Question: For CCC(C)c1ccccc1NC(=O)COc1ccc(-c2nnco2)cc1 (stereo not given), which Potency is on record?
Answer: Its Potency is “inactive”.

Question: For CCCc1[nH]c2ccc(C#N)cc2c1CCC, which Potency is on record?
Answer: Its Potency is inconclusive [inhibitor, full curve].

Question: For Oc1ccc(/C=N/Nc2ccc3ccccc3c2)c(O)c1, which Potency is on record?
Answer: Its Potency is inconclusive [inhibitor, single point].

Question: Which Potency does the source give for N#CCCN(C(=O)COc1ccc(F)cc1Br)c1ccccc1F here?
Answer: Its Potency is “inactive”.

Question: For CC(C)(C)c1ccc(C(=O)Nc2ccc(Oc3cccnc3)nc2)cc1, which Potency is on record?
Answer: Its Potency is active: 2.82 µM.

Question: Which Potency does the source give for Cc1cc(OCc2cc(C(=O)N(Cc3nccn3C)C(C)C)no2)cc(C)c1Cl here?
Answer: Its Potency is active: 11.2 µM.

Question: With COc1ccc2c(=O)cc(-c3ccccc3)n(C)c2c1 as the compound, how does the Potency read?
Answer: Its Potency is inconclusive [inhibitor, partial curve, poor fit].

Question: Which Potency does the source give for O=C(c1ccc(Cl)cc1)C1CCN(C(=O)c2ccccc2)CC1 here?
Answer: Its Potency is “inactive”.

Question: Which Potency does the source give for COc1ccc(C(=O)NCc2ccccc2CN2CCCC2)cc1S(=O)(=O)Nc1ccc(C)cc1 here?
Answer: Its Potency is inconclusive [inhibitor, single point].

Question: With Cc1cc(-c2ccccc2)nc(N/N=C/c2ccc(N(C)C)cc2)n1 as the compound, how does the Potency read?
Answer: The Potency was active: 12.6 µM.

Question: Which Potency does the source give for COc1ccc(OC)c(NC(=O)C2CCN(S(=O)(=O)c3c(C)noc3C)CC2)c1 here?
Answer: Its Potency is inconclusive [inhibitor, single point].

Question: For CNC(=O)c1c(NC(=O)C2=COCCO2)sc(C)c1C, which Potency is on record?
Answer: Its Potency is inconclusive [inhibitor, full curve, poor fit].

Question: Which Potency does the source give for COCCN(C(=O)COC(=O)c1cc2c(s1)CCCC2)c1c(N)n(Cc2ccccc2)c(=O)[nH]c1=O here?
Answer: Its Potency is inconclusive [inhibitor, full curve, poor fit].

Question: With O=C(Nc1ccc(S(=O)(=O)N2CCOCC2)cc1)c1ccc(S(=O)(=O)N2CCOCC2)cc1 as the compound, how does the Potency read?
Answer: The Potency was “inactive”.

Question: Which Potency does the source give for Cc1cccc(-c2nc3ccccc3c(=O)n2NC(=O)c2cccnc2Cl)c1 here?
Answer: Its Potency is “inactive”.

Question: With CCOC(=O)N1CCN(C(=O)c2ccccc2NC(=O)COc2ccccc2)CC1 as the compound, how does the Potency read?
Answer: The Potency was inconclusive [inhibitor, single point].
